From paper PMC4336329 (PLoS ONE, 2015)
Screen size: about 310,000 compounds; about 2,200 (0.71%) showed an effect of 50% or more. Effects have a minus sign here. The list shows a part of the results.

What follows are compounds tested against human ether-à-go-go-related gene (hERG) potassium channel (human, UniProt Q12809) (assay: primary screen, population patch clamp on CHO cells stably expressing hERG).
human ether-à-go-go-related gene (hERG) potassium channel, sequence (Q12809 whole entry, looked up): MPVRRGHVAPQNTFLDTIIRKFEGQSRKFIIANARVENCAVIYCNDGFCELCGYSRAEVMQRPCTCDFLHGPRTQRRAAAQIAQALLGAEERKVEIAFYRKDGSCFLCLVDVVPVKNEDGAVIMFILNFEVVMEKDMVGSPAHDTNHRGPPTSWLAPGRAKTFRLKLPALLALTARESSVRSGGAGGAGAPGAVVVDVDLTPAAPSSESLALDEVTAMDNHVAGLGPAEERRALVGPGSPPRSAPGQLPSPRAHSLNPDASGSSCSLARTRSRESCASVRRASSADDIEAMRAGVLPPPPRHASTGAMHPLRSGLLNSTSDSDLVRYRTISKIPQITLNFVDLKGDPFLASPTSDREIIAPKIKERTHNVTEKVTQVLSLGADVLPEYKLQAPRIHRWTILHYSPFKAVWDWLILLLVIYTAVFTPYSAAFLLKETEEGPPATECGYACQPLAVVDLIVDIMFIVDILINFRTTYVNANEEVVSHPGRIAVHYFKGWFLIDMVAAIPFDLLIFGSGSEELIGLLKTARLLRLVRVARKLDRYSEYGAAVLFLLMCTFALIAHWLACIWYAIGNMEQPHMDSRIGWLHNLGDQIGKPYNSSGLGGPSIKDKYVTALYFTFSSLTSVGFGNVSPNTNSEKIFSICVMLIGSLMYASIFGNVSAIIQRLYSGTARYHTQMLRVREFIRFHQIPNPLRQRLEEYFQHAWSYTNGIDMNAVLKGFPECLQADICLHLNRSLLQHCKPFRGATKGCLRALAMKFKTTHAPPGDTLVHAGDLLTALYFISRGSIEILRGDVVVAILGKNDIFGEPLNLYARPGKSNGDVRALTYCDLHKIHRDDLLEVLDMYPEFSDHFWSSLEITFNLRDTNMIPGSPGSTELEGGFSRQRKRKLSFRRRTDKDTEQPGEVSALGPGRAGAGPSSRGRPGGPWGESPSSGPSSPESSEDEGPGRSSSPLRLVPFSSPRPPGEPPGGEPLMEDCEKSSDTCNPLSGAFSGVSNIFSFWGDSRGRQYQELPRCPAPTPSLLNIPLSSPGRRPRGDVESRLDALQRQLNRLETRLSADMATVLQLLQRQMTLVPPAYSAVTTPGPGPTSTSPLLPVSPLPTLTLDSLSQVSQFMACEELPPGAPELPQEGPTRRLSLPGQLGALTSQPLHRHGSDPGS

| Structure (SMILES) | hERG current change (%, negative = inhibition) at 1uM [%] |
| --- | --- |
| O=C(N/N=C/c1ccccc1)c1cc(=O)[nH]c2ccccc12 | 13.9 |
| CCCCn1c(/C=N/Nc2nc3ccccc3[nH]2)nc2ccccc21 | 11 |
| COc1ccccc1C(=O)NCC(=O)N/N=C/c1ccc([N+](=O)[O-])cc1 | 13.5 |
| Nc1nonc1-n1nnc(C(=O)N/N=C/c2ccccc2Cl)c1-c1ccccc1 | 18.9 |
| CC(CCc1ccccc1)NC(=S)NC1CCCCC1 (stereo not drawn) | 13.9 |
| Cc1ccc(S(=O)(=O)N(CC(=O)O)Cc2ccco2)cc1 | 17.4 |
| CCc1nnc2sc(-c3ccc(NC(=O)CSc4ccc(Cl)cc4)cc3)nn12 | 13.2 |
| CCOc1ccc2nc(SCC(=O)N3c4ccccc4Sc4ccccc43)c(C#N)cc2c1 | 8.77 |
| C#CCOCCOCCOCCNc1nc(N2CCN(C(=O)[C@H]([C@@H](C)O)n3cc(CCCC[NH3+])nn3)CC2)nc(N2CCN(C(=O)[C@H](CCCC[NH3+])n3cc(CC(C)O)nn3)CC2)n1.[Cl-] (stereo partly drawn) | 2.98 |
| O=C1c2cccc3cccc(c23)C(=O)N1CCCn1ccnc1 | 2.55 |
| CCOc1cccc(N(C(=O)CNC(=O)c2ccco2)C(C(=O)NCC2CCCO2)c2ccccc2)c1 (stereo not drawn) | 5.26 |
| c1cnc(-c2noc(CN3CCN(C4C5CC6CC(C5)CC4C6)CC3)n2)cn1 (stereo not drawn) | 8.06 |
| Cc1ccccc1NC(=O)COC(=O)c1ccc(S(C)(=O)=O)c([N+](=O)[O-])c1 | 3.66 |
| COc1ccc(-c2csc(C3=C(O)CN(Cc4ccc(Cl)cc4)C3=N)n2)cc1OC | 0.975 |
| O=C(Nc1ccccc1Sc1ccccc1)C1CCCO1 (stereo not drawn) | 9.59 |
| OC1CCCCC1N1CCC(c2ccccc2)CC1 (stereo not drawn) | 8.04 |
| O=c1c2ccccc2nc(-c2ccc(Cl)c(Cl)c2)n1O | 12.8 |
| CC(C)(C)NC(=O)C1CCN(c2ccc(S(=O)(=O)N3CCOCC3)cc2Cl)CC1 | 9.46 |
| CCc1nc2ccc(C(=O)O)cc2nc1CC | 10.2 |
| COc1ccc(CNC(=O)CCCc2ccccc2)cc1 | -0.319 |
| O=C(Nc1ccc2c(c1)OCCO2)C1CCN(c2nnnn2-c2ccccc2)CC1 | 16.4 |

| Structure (SMILES) | hERG current change (%, negative = inhibition) at 1uM [%] |
| --- | --- |
| COc1ccc(Cl)c(OC)c1C(=O)NC(=O)Nc1nc(C)nc(C)n1 | 0.149 |
| Cc1ccc2nc(Cl)c(/C=N/n3c(C)nnc3C)cc2c1 | 6.34 |
| CCOC(=O)N1CCC(N2C(=O)c3ccccc3C2Nc2cc(OC)c(OC)c(OC)c2)CC1 (stereo not drawn) | -0.303 |
| Nc1c(Cl)cc(-c2cn(CCC(=O)O)c(-c3ccc(Cl)nc3)n2)cc1Cl | 22.2 |
| O=C(NCC(=O)N(c1cccc(F)c1)C(C(=O)NC1CCCC1)c1cccnc1)c1ccco1 (stereo not drawn) | -2.11 |
| COc1ccc(-c2c(NC(=O)c3ccco3)n(C)c3ccccc3c2=O)cc1 | -1.74 |
| CCOCc1c(C(=O)NCc2ccccc2CN2CCCC2)oc2ccccc12 | -60.1 |
| CC(Sc1ncn[nH]1)C(=O)NCc1ccccc1 (stereo not drawn) | 10.8 |
| O=C(c1ccc2c(=O)n3c(nc2c1)CCCCC3)N1CCN(c2ccc(Cl)cc2)CC1 | -5.12 |
| COc1ccc2oc(-c3ccccc3)c(C(=O)O)c2c1 | 21.1 |
| O=C(NCc1cccnc1)C1CCN(S(=O)(=O)c2cccs2)CC1 | -10.7 |
| Cc1ccc(NC2CCCN(C(=O)c3ccccn3)C2)cc1C (stereo not drawn) | 15.7 |
| COc1ccc(CC(=O)Nc2c3c(nn2-c2cccc(C)c2C)CS(=O)C3)cc1OC (stereo not drawn) | 16.2 |
| Cn1cnnc1SCc1ccc(C(=O)N=Nc2c(O)n(C)c3ccccc23)cc1 | 3.71 |
| CC1(C)Cc2c(sc(N)c2C#N)C(C)(C)N1 | 3.35 |
| CC(=O)Nc1ccc(OS(=O)(=O)c2ccc([N+](=O)[O-])cc2)cc1 | 7.12 |
| COc1cc(/C=N/n2cnnc2)ccc1OC(=O)c1ccncc1 | 12.2 |
| CN(C)S(=O)(=O)c1cccc(NC(=S)NC2CCCCC2)c1 | 11.4 |
| Cc1ccc([N+](=O)[O-])cc1NC(=O)c1cccs1 | 21.3 |
| CCOC(=O)c1c(C)c(C(=O)NCc2ccco2)c(C)n1C | 2.92 |
| CN1CCc2nc(NC(=O)COc3ccc(C#N)cc3)sc2C1 | 0.738 |
